Results on one molecule are retold here after PMC8536713.

Protein sequences, listed by entry. Tags and fused reporters are not part of them.
UniProt P34241: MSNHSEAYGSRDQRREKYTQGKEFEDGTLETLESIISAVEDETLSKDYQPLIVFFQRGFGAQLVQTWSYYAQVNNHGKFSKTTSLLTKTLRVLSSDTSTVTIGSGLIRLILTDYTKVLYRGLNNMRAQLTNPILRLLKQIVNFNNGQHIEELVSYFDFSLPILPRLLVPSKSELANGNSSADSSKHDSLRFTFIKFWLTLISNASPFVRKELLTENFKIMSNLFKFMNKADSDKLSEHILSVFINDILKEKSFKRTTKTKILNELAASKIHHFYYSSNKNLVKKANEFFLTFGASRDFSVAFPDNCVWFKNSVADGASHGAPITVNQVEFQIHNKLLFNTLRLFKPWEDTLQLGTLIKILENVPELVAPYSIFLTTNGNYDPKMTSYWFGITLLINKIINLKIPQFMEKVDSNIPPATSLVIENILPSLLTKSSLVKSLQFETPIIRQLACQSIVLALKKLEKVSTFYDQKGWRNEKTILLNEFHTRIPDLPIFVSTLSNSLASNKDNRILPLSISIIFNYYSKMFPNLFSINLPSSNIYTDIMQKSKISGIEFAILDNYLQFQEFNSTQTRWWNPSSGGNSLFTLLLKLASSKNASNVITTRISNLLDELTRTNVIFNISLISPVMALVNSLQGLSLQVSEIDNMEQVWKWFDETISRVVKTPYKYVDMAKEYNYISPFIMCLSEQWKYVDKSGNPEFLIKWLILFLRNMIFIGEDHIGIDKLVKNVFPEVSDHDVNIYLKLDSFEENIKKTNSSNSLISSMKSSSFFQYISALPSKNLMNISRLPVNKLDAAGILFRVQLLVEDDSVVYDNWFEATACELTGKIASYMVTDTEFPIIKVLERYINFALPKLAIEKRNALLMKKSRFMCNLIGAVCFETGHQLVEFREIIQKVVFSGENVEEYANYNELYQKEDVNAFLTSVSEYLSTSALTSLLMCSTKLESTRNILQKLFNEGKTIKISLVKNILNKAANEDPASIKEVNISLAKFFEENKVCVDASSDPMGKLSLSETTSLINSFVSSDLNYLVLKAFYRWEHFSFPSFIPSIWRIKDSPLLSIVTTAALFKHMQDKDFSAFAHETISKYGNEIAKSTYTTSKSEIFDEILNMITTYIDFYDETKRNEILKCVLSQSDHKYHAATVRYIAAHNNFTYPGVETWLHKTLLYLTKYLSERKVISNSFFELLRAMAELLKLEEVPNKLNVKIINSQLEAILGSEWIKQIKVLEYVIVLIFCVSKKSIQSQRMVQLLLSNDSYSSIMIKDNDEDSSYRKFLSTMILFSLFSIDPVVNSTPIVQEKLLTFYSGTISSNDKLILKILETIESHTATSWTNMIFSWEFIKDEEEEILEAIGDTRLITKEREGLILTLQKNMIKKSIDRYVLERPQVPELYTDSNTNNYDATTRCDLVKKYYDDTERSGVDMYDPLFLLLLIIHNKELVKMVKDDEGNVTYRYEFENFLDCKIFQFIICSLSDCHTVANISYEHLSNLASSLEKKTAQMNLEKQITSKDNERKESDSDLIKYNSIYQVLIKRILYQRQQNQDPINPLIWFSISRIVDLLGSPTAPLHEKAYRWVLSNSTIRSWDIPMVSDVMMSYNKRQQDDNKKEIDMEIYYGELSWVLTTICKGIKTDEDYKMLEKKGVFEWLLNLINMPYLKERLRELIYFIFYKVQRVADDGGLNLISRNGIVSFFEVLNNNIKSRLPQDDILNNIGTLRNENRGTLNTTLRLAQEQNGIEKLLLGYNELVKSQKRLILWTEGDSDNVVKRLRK

Common to all, as to assay: pull-down; pre-60S particles isolated via affinity-tagged assembly factors from yeast strains expressing Dbp7-GFP; Dbp7-GFP detected in the particles (Supplementary Fig. 1c)
For experiment [1], the target named is T1, affinity-tagged Arx1 (S. cerevisiae) (UniProt Q03862).
T1 sequence: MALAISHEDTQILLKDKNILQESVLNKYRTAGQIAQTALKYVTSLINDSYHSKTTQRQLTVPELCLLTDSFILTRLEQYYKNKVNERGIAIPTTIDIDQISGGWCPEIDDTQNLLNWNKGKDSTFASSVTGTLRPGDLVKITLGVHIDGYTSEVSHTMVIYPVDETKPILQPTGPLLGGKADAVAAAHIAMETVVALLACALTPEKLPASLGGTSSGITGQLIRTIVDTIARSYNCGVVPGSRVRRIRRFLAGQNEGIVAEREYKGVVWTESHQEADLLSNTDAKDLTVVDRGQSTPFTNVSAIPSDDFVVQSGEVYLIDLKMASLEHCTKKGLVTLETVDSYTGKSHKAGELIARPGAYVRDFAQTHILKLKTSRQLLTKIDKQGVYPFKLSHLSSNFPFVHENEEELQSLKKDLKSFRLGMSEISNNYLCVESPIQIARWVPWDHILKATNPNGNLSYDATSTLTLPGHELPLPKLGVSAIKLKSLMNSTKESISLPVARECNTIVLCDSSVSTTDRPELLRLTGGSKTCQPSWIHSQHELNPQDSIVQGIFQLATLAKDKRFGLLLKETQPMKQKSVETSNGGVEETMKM

The target in experiment [2] is affinity-tagged Npa1 (S. cerevisiae) (UniProt P34241).
A further experiment deals with T2, Nop2-TAP (S. cerevisiae) (UniProt P40991).
T2 sequence: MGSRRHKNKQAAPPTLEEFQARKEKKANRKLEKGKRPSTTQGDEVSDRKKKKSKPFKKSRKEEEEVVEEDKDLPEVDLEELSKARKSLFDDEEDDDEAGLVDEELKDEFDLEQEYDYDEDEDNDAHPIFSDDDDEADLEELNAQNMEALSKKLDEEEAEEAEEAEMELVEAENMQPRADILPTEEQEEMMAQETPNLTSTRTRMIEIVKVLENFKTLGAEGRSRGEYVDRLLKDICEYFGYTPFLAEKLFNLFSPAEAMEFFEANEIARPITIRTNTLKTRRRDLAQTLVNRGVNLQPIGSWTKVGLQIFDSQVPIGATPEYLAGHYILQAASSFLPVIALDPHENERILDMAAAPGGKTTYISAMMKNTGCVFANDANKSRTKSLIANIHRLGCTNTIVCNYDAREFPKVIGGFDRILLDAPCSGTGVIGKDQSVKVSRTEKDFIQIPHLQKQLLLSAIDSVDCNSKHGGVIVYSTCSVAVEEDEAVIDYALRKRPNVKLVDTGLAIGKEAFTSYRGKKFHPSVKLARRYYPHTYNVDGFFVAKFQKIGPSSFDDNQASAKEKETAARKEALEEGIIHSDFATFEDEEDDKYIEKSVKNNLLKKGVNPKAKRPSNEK

The target in experiment [3] is T3, affinity-tagged Nip7 (S. cerevisiae) (UniProt Q08962).
T3 sequence: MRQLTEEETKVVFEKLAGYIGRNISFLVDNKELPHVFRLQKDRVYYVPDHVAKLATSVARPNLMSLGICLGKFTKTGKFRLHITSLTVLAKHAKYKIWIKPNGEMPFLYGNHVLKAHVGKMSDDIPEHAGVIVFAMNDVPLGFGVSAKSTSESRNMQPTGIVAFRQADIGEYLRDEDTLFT

Experiment [4] addresses T4, affinity-tagged Rpf2 (S. cerevisiae) (UniProt P36160).
T4 sequence: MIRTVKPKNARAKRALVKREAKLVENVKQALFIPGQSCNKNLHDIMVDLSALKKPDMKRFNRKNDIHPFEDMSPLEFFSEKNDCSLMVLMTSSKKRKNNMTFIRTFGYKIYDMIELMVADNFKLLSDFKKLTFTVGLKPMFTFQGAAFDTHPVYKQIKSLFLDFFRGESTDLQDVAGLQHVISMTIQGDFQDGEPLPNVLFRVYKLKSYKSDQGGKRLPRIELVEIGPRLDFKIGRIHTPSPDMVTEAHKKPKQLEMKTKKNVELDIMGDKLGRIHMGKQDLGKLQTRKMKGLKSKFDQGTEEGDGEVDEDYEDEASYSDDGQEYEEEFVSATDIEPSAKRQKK

Experiment [5] addresses T5, affinity-tagged Erb1 (S. cerevisiae) (UniProt Q04660).
T5 sequence: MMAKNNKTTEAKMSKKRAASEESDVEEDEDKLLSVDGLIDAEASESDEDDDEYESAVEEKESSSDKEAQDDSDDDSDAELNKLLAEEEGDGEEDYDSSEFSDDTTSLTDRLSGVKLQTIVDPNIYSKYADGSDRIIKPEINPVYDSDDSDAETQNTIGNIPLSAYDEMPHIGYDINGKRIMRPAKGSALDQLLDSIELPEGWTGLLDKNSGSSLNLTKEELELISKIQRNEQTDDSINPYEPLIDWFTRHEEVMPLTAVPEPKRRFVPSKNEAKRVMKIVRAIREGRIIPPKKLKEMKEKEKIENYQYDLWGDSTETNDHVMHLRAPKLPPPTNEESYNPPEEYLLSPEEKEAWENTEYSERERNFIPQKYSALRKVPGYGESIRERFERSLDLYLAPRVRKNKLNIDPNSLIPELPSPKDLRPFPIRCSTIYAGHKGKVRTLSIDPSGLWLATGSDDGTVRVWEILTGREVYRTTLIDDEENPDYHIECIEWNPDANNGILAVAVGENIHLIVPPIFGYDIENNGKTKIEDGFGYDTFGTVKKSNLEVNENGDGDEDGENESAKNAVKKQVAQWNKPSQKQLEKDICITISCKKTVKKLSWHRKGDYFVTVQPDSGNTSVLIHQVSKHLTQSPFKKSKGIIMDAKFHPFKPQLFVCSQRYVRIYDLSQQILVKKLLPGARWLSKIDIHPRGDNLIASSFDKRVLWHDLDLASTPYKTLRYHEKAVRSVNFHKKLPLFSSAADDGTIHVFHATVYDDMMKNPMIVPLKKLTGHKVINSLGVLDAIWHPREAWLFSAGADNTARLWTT

No constants are given. Whether binding was seen depends on the method and setting. Binding seen in cells or lysates may run through a third protein. Some binding calls cover weakened binding; strength is not graded here. Where a sequence is shown, tags or fusion partners need not be part of it.

B1: Dbp7-GFP (enzyme, UniProt P36120 1-742)
chain: MSDEDSMLLNFTTNEDTAGSSYKQAAKVTGGRWKDRRRMKMKLEGKTVSRKRKANTTGDEGIIPGRGENSIKKLHKESSYSSEEQEKYKGRNAHNTQGRTLPADSQFVSSLFTSNREITTAVNTNIHDENVAINPSNAPLKGDQFASLGVSSLLVSHLEQKMRIKKPTSIQKQAIPQIIGNAGKNDFFIHAQTGSGKTLSYLLPIISTILNMDTHVDRTSGAFALVIAPTRELASQIYHVCSTLVSCCHYLVPCLLIGGERKKSEKARLRKGCNFIIGTPGRVLDHLQNTKVIKEQLSQSLRYIVLDEGDKLMELGFDETISEIIKIVHDIPINSEKFPKLPHKLVHMLCSATLTDGVNRLRNVALKDYKLISNGTKKDSDIVTVAPDQLLQRITIVPPKLRLVTLAATLNNITKDFIASGQQSKTLRTIVFVSCSDSVEFHYDAFSGSDGHHKNLTGDSVRLLTKGNTMFPCFSDSRDPDVVIYKLHGSLSQQMRTSTLQHFARDNEATKGKHLIMFCTDVASRGLDLPHVGSVIELDPPFAVEDHLHRVGRTARAGEKGESLLFLLPGEEEKYMDYIQPYHPMGWELLKFDKEILMPAFKDVNVNRNDKFIRKDEKSSKNKDVGDKEYEWDTNATTWHLNIERRVVGDSAFKNLAVKGFISHVRAYATHISQEKKFFNVKFLHLGHLAKSFGLRERPKAMGLQSSKDGNSEKKPTKENSKNKMFRMARMAEKQIASEFNY
Turning to B1, the binding result in experiment [1] is given as “no binding”; in experiment [2], “binds”; in the experiment with Nop2-TAP (S. cerevisiae), “binds”; in experiment [3] it was “binds”; in experiment [4], “binds”; in experiment [5], “binds”.
